Results reported in PubChem BioAssay AID504832 (National Center for Advancing Translational Sciences (NCATS), 2011).
In all, about 310,000 compounds went through this assay and about 18,000 (5.8%) were called active. Inconclusive means that the source gave no clear call. Such entries were picked first, then a sample of the others. Calls follow the shape of the dose curve; as a rule, active = well fitted inhibition curve with a large enough effect; inconclusive = small, poorly fitted or top-dose-only effect, or another doubt; inactive = no such curve, though single readings can be large or run the other way. No potency is given beside an inconclusive call; the fits are too rough.

Assay: Primary qHTS for delayed death inhibitors of the malarial parasite plastid, 48 hour incubation
Conditions: P. falciparum luciferase growth in erythrocytes; series mostly up to 28.7 µM
How it was run: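 Compounds are pin-transferred into medium, infected erythrocytes (2% hematocrit, 0.1% parasitemia final) are added, and plates sit one parasite generation at 37 C in 5% CO2. Detection reagent is then added and luminescence measured.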
Potency is read from the fitted curve at half-maximal effect; tags tell the direction and shape of the fitted curve.

| SMILES | Potency |
| --- | --- |
| COc1ccccc1N1CCN(C(=O)c2cc(=O)c3ccc(C)cc3o2)CC1 | inconclusive [inhibitor, partial curve, poor fit] |
| Cc1ccc(N2C(=O)SC(Cc3ccccc3)C2=O)cc1 (stereo unspecified) | inactive |
| Cn1c(N2CCOCC2)c(/C=N/OC(=O)c2ccc(F)cc2)c2ccccc21 | active: 1.31 µM |
| COc1ccccc1NS(=O)(=O)c1cccc(C(=O)NNC(=O)c2ccc(NC(C)=O)cc2)c1 | inconclusive [inhibitor, single point] |
| COc1cccc(-n2c(SCC(=O)Nc3ccc4c(c3)CCC4)nc3ccccc3c2=O)c1 | inconclusive [inhibitor, single point] |
| Cc1nc(C)c(-c2csc(NCc3ccccc3)n2)s1 | inconclusive [inhibitor, single point] |
| COc1ccc(Cc2nnc(Nc3ccccc3OC)[nH]c2=O)cc1 | inconclusive [inhibitor, partial curve] |
| CN(Cc1ccccc1F)c1nc(-c2cccs2)nc2ccccc12 | active: 9.28 µM |
| Cc1ccc(Cl)cc1N1CCN(S(=O)(=O)c2c(C)[nH]c(C)c2C(=O)N2CCCCC2)CC1 | inconclusive [inhibitor, partial curve] |
| COc1ccccc1NS(=O)(=O)c1cc(NC(=O)CCC2CCCC2)ccc1N1CCOCC1 | inconclusive [inhibitor, single point] |
| CC(NC(=O)c1cc(-c2ccccn2)nc2ccc(Cl)cc12)C1CCCO1 (stereo unspecified) | inactive |
| COc1cc(CN2CCCCCC2)cc(OC)c1OC | inactive |
| COc1ccc2cc(-c3cccnc3)ncc2c1 | inactive |
| O=C(Nc1ccccc1)NC1CCCc2ccccc21 (stereo unspecified) | inconclusive [inhibitor, single point] |
| COc1ccc(NC(=O)NNC(=O)CCc2ccc(O)c(O)c2)cc1OC | inconclusive [inhibitor, partial curve, poor fit] |
| Cc1cc(NC(=O)c2ccc3c(c2)OCCO3)no1 | inconclusive [inhibitor, single point] |
| Cc1ccccc1NS(=O)(=O)c1ccc(C)c(C(N)=O)c1 | inconclusive [inhibitor, full curve, poor fit] |
| CCN(CC)CCCNC(=O)c1csc(Nc2cccc3ccccc23)n1 | inconclusive [inhibitor, single point] |
| COC(=O)c1[nH]c2ccccc2c1NS(=O)(=O)c1ccc(F)c(C)c1 | inconclusive [inhibitor, single point] |
| COc1ccc(OCCC(=O)Nc2cc3c(cc2C(=O)O)OCCCO3)cc1 | inconclusive [inhibitor, partial curve, poor fit] |
| CSc1ccc(CNC(=O)C2Cc3cc(S(=O)(=O)N4CCCCC4)ccc3N2C(C)=O)cc1 (stereo unspecified) | inactive |
| CCC1=NN(C(=O)c2ccc(C)cc2)C(O)(c2ccc(Br)cc2)C1 (stereo unspecified) | inactive |
| OC(COC(c1ccc(F)cc1)c1ccc(F)cc1)CN1CCc2ccccc2C1 (stereo unspecified) | inconclusive [inhibitor, partial curve, poor fit] |
| COc1ccc(NC(=O)c2cc([N+](=O)[O-])ccc2NC(=O)CNCc2ccccn2)c(OC)c1 | inconclusive [inhibitor, single point] |

| SMILES | Potency |
| --- | --- |
| CCN(Cc1ccccc1)C(c1ccc(C)cc1)c1nnnn1C(C)(C)CC (stereo unspecified) | active: 13.1 µM |
| COC(=O)C1=C(c2ccccc2OCc2ccccc2)C[C@@H]2CC[C@H]1N2C(=O)NCCN1CCOCC1 | inconclusive [inhibitor, partial curve, poor fit] |
| CCSC1=NCCN1C(=O)Cc1ccc(-c2ccccc2)cc1 | inconclusive [inhibitor, single point] |
| O=C(NCCN1CCOCC1)c1ccc(-c2ccccc2)cc1 | inactive |
| C=CCN(c1ccccc1)S(=O)(=O)c1cccc(C(=O)N(CC)CC(=O)Nc2c(F)cccc2F)c1 | inconclusive [inhibitor, single point] |
| Cc1ccc(-n2ccc(-c3nn(-c4ccccc4)ccc3=O)n2)cc1 | inconclusive [inhibitor, partial curve, poor fit] |
| CCOC(=O)CN(C(=O)CSc1nnc(-c2cccc(OC)c2)o1)c1ccc(F)cc1 | inconclusive [inhibitor, partial curve, poor fit] |
| CCOC(=O)C(C)N1C(=O)S/C(=C/c2ccc3c(c2)n(C)c(=O)n3C)C1=O (stereo unspecified) | inconclusive [inhibitor, single point] |
| O=C(CSc1nnc(C2COc3ccccc3O2)o1)N1CCN(c2ccccc2)CC1 (stereo unspecified) | inactive |
| O=C(Nc1ccc(NC(=O)C23CC4CC(CC(C4)C2)C3)cn1)c1ccco1 | inactive |
| O=C(Nc1ccccc1N1CCCCC1)C1=COCCO1 | inconclusive [inhibitor, single point] |
| COc1ccc(NC(=S)NCc2ccccc2Cl)c(OC)c1 | inconclusive [inhibitor, partial curve, poor fit] |
| Cc1ccc(Cn2ncc3c(NCCCN4CCOCC4)ncnc32)cc1 | inconclusive [inhibitor, partial curve, poor fit] |
| COc1ccc(C(=O)C2CCCN(Cc3cccn3-c3nccs3)C2)cc1F (stereo unspecified) | inconclusive [inhibitor, single point] |
| CC(C)(C)c1cc(CSC(=S)NC2CCS(=O)(=O)C2)c(Br)c(C(C)(C)C)c1 (stereo unspecified) | inconclusive [inhibitor, single point] |
| O=C(O)COc1ccccc1/C=N/NC(=O)CSc1nc2ccccc2n1Cc1ccccc1 | inconclusive [inhibitor, partial curve] |
| CCOC(=O)c1c(-c2cccs2)csc1NC(=O)c1ccncc1 | inconclusive [inhibitor, single point] |
| Cc1nc2ccc(NC(=O)N3CCC(c4ccccc4)C3)cc2nc1C (stereo unspecified) | inconclusive [inhibitor, single point] |
| CCc1c(O)nc(SCC(=O)N(CC)CC)[nH]c1=O | inconclusive [inhibitor, single point] |
| COc1cccc(NC(=O)c2cnc(SC)nc2C)c1 | inactive |
| COc1cc(OC)cc(C(=O)NCCNc2nc3cc(C)cc(C)c3cc2C#N)c1 | inconclusive [inhibitor, partial curve, poor fit] |
| COc1ccc(-c2csc(NC(=S)NC(=O)c3ccc(S(=O)(=O)N(C)C)cc3)n2)cc1OC | active: 13.1 µM |
| O=C(CSc1nc(-c2ccccc2)c(-c2ccccc2)o1)NCCCO | inconclusive [inhibitor, single point] |
| O=C(Nc1cccn2ncnc12)c1ccc(Cl)cc1 | inactive |

| SMILES | Potency |
| --- | --- |
| Cn1c(=S)oc2ccccc21 | inactive |
| COc1ccccc1CCN1CCCC(CN(C)CC(C)(C)CO)C1 (stereo unspecified) | inactive |
| COc1ccc(NC2=NCCC2)cc1 | inconclusive [inhibitor, single point] |
| CC(C)c1ccc(/C=N/Nc2cc(N3CCOCC3)nc(N3CCOCC3)n2)cc1 | inconclusive [inhibitor, single point] |
| O=C(CN(Cc1ccc(Br)cc1)S(=O)(=O)c1ccccc1)NCc1cccnc1 | inconclusive [inhibitor, partial curve] |
| COC(=O)C1=COC(C)C2CN3CCC4(C(=O)Nc5ccccc54)C3CC12 (stereo unspecified) | inactive |
| CCc1nc(SCC(=O)N2CC(=O)Nc3ccccc32)c2c(C)c(C)sc2n1 | inconclusive [inhibitor, single point] |
| CC[C@@](C)(NS(=O)(=O)OCC(Cl)(Cl)Cl)c1ccccc1 | inactive |
| CCOC(=O)C1(Cc2ccccc2)CCCN(C2CCN(C(C)=O)CC2)C1 (stereo unspecified) | inconclusive [inhibitor, partial curve] |
| Cn1c(NN=O)nc2ccccc21 | active: 11.7 µM |
| CCN(CC)S(=O)(=O)c1ccc(N(C)C)c(NC(=O)C2CCCC2)c1 | inactive |
| Cc1ccc(NC(=O)CSc2nnnn2-c2cccnc2)c(C)c1 | inactive |
| CCOc1ccc(Oc2ccc(Cl)cc2NC(=O)C2=COCCO2)cc1 | inconclusive [inhibitor, single point] |
| Cc1ccc(-n2c(O)cnc2Nc2nc(C)cc(C)n2)cc1 | inactive |
| COC(=O)c1sc2nc(-c3ccccc3)nc(N3CCN(C)CC3)c2c1C | active: 3.7 µM |
| COc1ccc(C2(CCN=Cc3ccc(N(C)C)cc3)CCOC(C)(C)C2)cc1 (stereo unspecified) | inconclusive [inhibitor, single point] |
| O=C(NCCc1c[nH]c2ccccc12)C1CCCN(S(=O)(=O)c2ccccc2)C1 (stereo unspecified) | inconclusive [inhibitor, single point] |
| COc1ccc(C(=O)O)nc1C | inconclusive [inhibitor, single point] |
| CCCn1nnc(NC(=O)c2ccc3ccccc3c2)n1 | inactive |
| Cc1cc(S(=O)(=O)Nc2ccc3ccccc3c2)c(C)s1 | inactive |
| O=C(Oc1ccc2c(c1)OCO2)c1ccc(Br)c(S(=O)(=O)N2CCOCC2)c1 | inconclusive [inhibitor, single point] |
| CC(Oc1ccc2ccc(=O)oc2c1)C(=O)NC1CCN(Cc2ccccc2)CC1 (stereo unspecified) | inconclusive [inhibitor, partial curve] |
| CCO[C@H]1OC(C(=O)N2CCOCC2)=C[C@@H](c2cn(C(C)=O)c3ccccc23)[C@@H]1CCCO | inactive |
